# Experimental data reported in publication PMC4336329 (PLoS ONE, 2015).
# Screen size: about 310,000 compounds; about 2,200 (0.71%) showed an effect of 50% or more. The effect is printed as a negative number. The list shows a part of the results.
# Target: human ether-à-go-go-related gene (hERG) potassium channel (human, UniProt Q12809)
# Test: primary screen, population patch clamp on CHO cells stably expressing hERG
# Chain of human ether-à-go-go-related gene (hERG) potassium channel (Q12809 whole entry, looked up): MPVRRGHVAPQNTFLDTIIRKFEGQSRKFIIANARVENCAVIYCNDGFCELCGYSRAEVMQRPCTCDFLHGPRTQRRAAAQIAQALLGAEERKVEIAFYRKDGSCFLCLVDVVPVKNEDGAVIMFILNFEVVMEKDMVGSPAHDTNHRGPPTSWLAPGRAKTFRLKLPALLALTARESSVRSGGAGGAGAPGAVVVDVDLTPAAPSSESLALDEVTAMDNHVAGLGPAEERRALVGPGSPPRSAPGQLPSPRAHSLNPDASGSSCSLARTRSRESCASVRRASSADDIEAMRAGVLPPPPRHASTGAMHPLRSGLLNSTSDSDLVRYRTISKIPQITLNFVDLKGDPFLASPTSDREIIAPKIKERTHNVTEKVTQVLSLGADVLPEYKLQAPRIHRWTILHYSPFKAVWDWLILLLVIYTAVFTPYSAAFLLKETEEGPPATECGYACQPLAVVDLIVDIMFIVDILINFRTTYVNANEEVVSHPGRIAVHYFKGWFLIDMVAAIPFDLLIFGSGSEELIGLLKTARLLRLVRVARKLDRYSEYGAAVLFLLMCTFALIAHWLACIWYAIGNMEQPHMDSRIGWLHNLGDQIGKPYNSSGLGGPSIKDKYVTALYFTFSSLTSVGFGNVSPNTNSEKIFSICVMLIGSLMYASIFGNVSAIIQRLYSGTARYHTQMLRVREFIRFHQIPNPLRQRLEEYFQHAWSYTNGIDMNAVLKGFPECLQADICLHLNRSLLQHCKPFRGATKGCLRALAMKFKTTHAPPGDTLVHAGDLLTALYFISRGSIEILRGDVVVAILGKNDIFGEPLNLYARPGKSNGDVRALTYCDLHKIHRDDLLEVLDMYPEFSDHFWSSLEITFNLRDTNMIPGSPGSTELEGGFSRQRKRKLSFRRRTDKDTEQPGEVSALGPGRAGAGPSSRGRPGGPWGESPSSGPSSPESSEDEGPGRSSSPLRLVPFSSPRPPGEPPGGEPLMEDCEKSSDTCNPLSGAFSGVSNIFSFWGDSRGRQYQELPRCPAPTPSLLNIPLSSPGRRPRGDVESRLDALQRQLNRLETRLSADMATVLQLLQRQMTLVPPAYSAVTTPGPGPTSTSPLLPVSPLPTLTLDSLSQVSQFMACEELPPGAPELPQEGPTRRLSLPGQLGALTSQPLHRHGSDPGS
row,Compound,"hERG current change (%, negative = inhibition) at 1uM [%]"
1,O=C(NC(=S)Nc1cc(S(=O)(=O)N2CCOCC2)ccc1O)c1ccco1,11.1
2,O=C(Nc1ccccc1F)C1CC1c1ccccc1 (centres unmarked),12.7
3,O=C(OCC1OC(n2ccc(=O)[nH]c2=O)C(Cl)C1O)c1ccccc1 (centres unmarked),1.97
4,O=C1/C(=C\c2ccccc2)SC(=S)N1CCC(=O)N1CCCCC1CCO (centres unmarked),4.17
5,COc1ccc(-c2csc(NC(=O)CC(NC(C)=O)c3ccccc3)n2)cc1OC (centres unmarked),2.94
6,CCc1ccc(/C=C2\SC(=S)N(CCCC(=O)Nc3ccccc3C(=O)O)C2=O)cc1,13.3
7,COc1ccc(/C=C/c2nnc(NC(=O)COc3cccc(C)c3)s2)cc1,6.26
8,CCCCNC(=O)Cn1c(=O)oc2cc(S(=O)(=O)N3CC(C)CC(C)C3)ccc21 (centres unmarked),8.02
9,CCOc1cc(C2C3=C(CC(C)(C)CC3=O)N(CCCOC)C3=C2C(=O)CC(C)(C)C3)ccc1O,14
10,CCN(CC)c1nc(Nc2ccc(Cl)cc2)nc(OCC#N)n1,8.46
11,COc1ccccc1CN1CC(C(=O)NCc2cccnc2)CC1=O (centres unmarked),-0.197
12,O=C(C1CCCC1)N1CCC(CC2CC(c3ccc(Cl)cc3)=NO2)(C(=O)NCC2CCCCC2)CC1 (centres unmarked),5.7
13,O=C(NCc1ccccc1)C12CC3CC(CC(C3)C1)C2,9.12
14,COc1cc(NC(=O)c2cc(-c3ccco3)on2)c(OC)cc1Cl,-10.4
15,Cc1cc(N)c(C)c([N+](=O)[O-])c1C,15
16,CCOC(=O)c1oc2ccccc2c1CN1CC(C)OC(C)C1 (centres unmarked),7.86
17,Cc1ccc(/C=N/NC(=O)c2cccnc2)s1,14.4
18,CC(C)(CO)NCc1cccs1.Cl,12.7
19,Cc1onc(-c2ccccc2Cl)c1C(=O)OCN1C(=O)c2ccccc2C1=O,7.89
20,COc1ccc(N2CCN(c3cc(C)c4ccccc4n3)CC2)cc1,10.9
21,Cc1cc(=O)oc2c(C)c(OCC(=O)N3CCN(c4ccccc4)CC3)ccc12,9.28
22,Cc1ccccc1OCC(=O)N/N=C/c1ccncc1,11.5
23,O=C(OCC(=O)N1CCCC1)c1ccccc1O,15.7

row,Compound,"hERG current change (%, negative = inhibition) at 1uM [%]"
1,CCOC(=O)C(CC)n1nc(C)n2c(cc3occc32)c1=O (centres unmarked),13.4
2,CCC1CCCCN1c1nc(-c2ccncc2)nc2ccccc12 (centres unmarked),-0.516
3,CC(=O)Nc1ccc(-n2c(C)ccc2C)cc1,12.9
4,CCOc1ccc(OCc2ccc(C(=O)NCc3cccnc3)o2)cc1,-18.2
5,FC(F)Sc1ccc(NC(=S)NC2CCCC2)cc1,8.79
6,CC1(C)Cc2c(sc3c2c(=N)n(Cc2ccco2)c(=O)n3CC(=O)Nc2ccc(Cl)cc2)CO1,-0.801
7,Clc1ccc(COn2nnc3ccccc32)c(Cl)c1,9.69
8,CCN(CC)CC.CCN1C(=O)/C(=C2/Sc3ccccc3N2CCCS(=O)(=O)O)SC1=S,3.89
9,CC1(C)Cc2c(sc3c2c(=N)n(Cc2ccco2)c(=O)n3Cc2ccc(F)cc2)CO1,0.644
10,O=c1cc([O-])[n+]2c3n1CCCN3CCC2,1.27
11,CCCCCN(C(=O)CCC(=O)OCC(=O)c1ccc(F)c(F)c1)c1c(N)n(CCCC)c(=O)[nH]c1=O,-3.35
12,O=C(/C=C/c1ccc(OCc2ccccc2)c(OCc2ccccc2)c1)c1cccnc1,1.73
13,CC(C)(C)c1cc(C(=O)Nc2ccc(F)cc2)n(Cc2ccc(F)cc2)n1,10.1
14,N#CC1=C(N)N2C(=C(C#N)C13CCCCC3)SC1CCCCC12O (centres unmarked),11.9
15,O=C(Nc1ccc(NC(=O)C2CCCCC2)nc1)c1cccs1,10.4
16,O=C(CSc1nc2ccccc2n1CC(=O)N1CCCC1)N1CCN(C(=O)c2ccco2)CC1,6.53
17,Cc1ccc(C)c(NC(=O)c2ccccc2NC(=O)C2CCCO2)c1 (centres unmarked),8.86
18,Nc1ccc(Cl)c(NC(=O)c2cccs2)c1,12.6
19,COC(=O)C1=C(c2cccc(OCc3ccccc3)c2)C[C@@H]2CC[C@H]1N2C(=O)NCc1ccc(Br)cc1,15.2
20,COC(=O)C1=C(C(=O)OC)C(c2ccc(OC)c(OC)c2)c2sc(=O)[nH]c2S1 (centres unmarked),2.33
21,O=C1COc2ccc(C(=O)COC(=O)CNS(=O)(=O)c3cccc(F)c3)cc2N1,3.27
22,CC1C(=O)C(C)C(c2ccco2)NC1c1ccco1.Cl (centres unmarked),12.2
23,c1cnn(-c2cncc(-n3cccn3)n2)c1,6.72

row,Compound,"hERG current change (%, negative = inhibition) at 1uM [%]"
1,CCOC(=O)c1c(CN(C)C)oc2cc(CN(C)C)c(O)c(CSc3ccccc3)c12.Cl,8.99
2,CC1CCN(C(=O)Cc2nn(C)c(=O)c3ccccc23)CC1,8.01
3,CN(C)C=NC(=O)c1cc(C(=O)c2ccccc2Cl)c[nH]1,10.1
4,Cc1cc(CNC(=O)C2(C(F)(F)F)CC(CCCO)CCCO2)nn1C (centres unmarked),13.2
5,Cn1c(SCC(=O)Nc2ccc(Cl)cc2)nnc1C1CC1,16
6,C[C@@H]1CC=C[C@H]2[C@H]1C(=O)N(Cc1ccccc1)[C@H]2c1ccc(-c2ccoc2)cc1F,17.9
7,CC1(C)OC(=O)CC1C(=O)NCc1ccccc1 (centres unmarked),12.4
8,COc1cc(C(=O)N(CCCO)Cc2cc3ccc(C)c(C)c3[nH]c2=O)cc(OC)c1OC,-1.43
9,COc1ccc(C2/C=C\CN(CC(C)C)CC(=O)N2Cc2ccc(F)cc2)cc1 (centres unmarked),7.46
10,O=C(N/N=C/C=N/NC(=O)c1ccco1)c1ccco1,-2.61
11,CCCOc1ccc(C(=O)N2CCCC2C(=O)O)cc1 (centres unmarked),12.3
12,CC1CN=C(NCc2ccc(F)cc2)S1 (centres unmarked),5.51
13,O=[N+]([O-])CCO,11.3
14,CC1(C)Cc2nc3oc4c(SCC(N)=O)ncnc4c3cc2CO1,8.49
15,Cc1ccc(N2C(=O)/C(=C\c3ccco3)SC2=S)cc1,22.6
16,COc1ccc(CNC(=S)NC(C)CCc2ccccc2)cc1 (centres unmarked),-16.1
17,N#C/C(=C/c1ccccc1[N+](=O)[O-])c1nc(C2CC2)cs1,12.5
18,COc1ccc(OC)c(NC(=O)Cc2csc(NC(=O)Nc3ccccc3OC)n2)c1,4.48
19,O=[N+]([O-])CC(c1ccc(F)cc1)c1c[nH]c2ccccc12 (centres unmarked),7.67
20,CC(C)(C)C(=O)NC1CC2CCCC(C1)N2C(=O)Nc1ccccc1 (centres unmarked),13.2
21,Cc1ccccc1Cn1nc(C)c(NC(=O)c2cc(CC(C)C)on2)c1C,6.85
22,Cc1nc2c([nH]1)C1(CCN(Cc3ccccc3)CC1)C(C#N)=C(N)O2.Cl,-11.1
23,O=S(=O)(c1cccc(NC(=S)N2CCN(c3ccccc3F)CC2)c1)C(F)F,4.27

row,Compound,"hERG current change (%, negative = inhibition) at 1uM [%]"
1,CC1(C)SC(=S)N(c2ccccc2)C1/[N+]([O-])=C/c1cccc([N+](=O)[O-])c1 (centres unmarked),12.7
2,Cc1cc(C)cc(-n2c3nc4ccccc4nc3c3c(=O)n(Cc4ccco4)cnc32)c1,18.5
3,S=C(NCCc1ccccc1)N/N=C/c1ccccc1Cl,23.8
4,CCCCCCOc1ccc(CN2CCN(CCO)CC2)cc1,-14.3
5,CCOC(=O)C1(CCCc2ccccc2)CCN(C(=O)CCn2cncn2)CC1,-13.1
6,CCCCCCn1c(=O)c(C(=O)N/N=C/c2cccc(F)c2)c(O)c2ccccc21,11.4
7,CCc1ccc(NC(=O)Nc2ccc3c(c2)CCC3)cc1,10.9
8,Cc1ccc(NCN2C(=O)C3CC=C(Cl)CC3C2=O)cc1 (centres unmarked),10.9
9,Cc1cccc(CCN2C(N(C)C)=NC[C@@H]2CC(C)C)c1,1.88
10,COc1ccc(OC)c(NC(=O)CN2C(=O)COc3ccc(S(=O)(=O)N4CCCC4)cc32)c1,11.3
11,CSc1cccc(NC(=S)N(Cc2ccc(C)cc2)Cc2cccnc2)c1,0.958
12,O=C(c1cc(S(=O)(=O)N2CCN(c3ccccc3)CC2)ccc1Cl)N1CCCCCCC1,4.75
13,CCOC(=O)C1=C(CSc2nc3c(cc2C#N)CN(C)CC3)OC(N)=C(C#N)C1c1ccc(F)cc1 (centres unmarked),10.5
14,COc1cccc(CN2CC(C(=O)N3CCCCCC3)CCC2=O)c1 (centres unmarked),12.3
15,COC(=O)C(CC(=O)c1ccc(Br)cc1)n1cccn1 (centres unmarked),12.5
16,CCCOc1ccc(S(=O)(=O)N2C(=O)CC(=O)N(Cc3ccc(OCC)cc3)C2=O)cc1,9.83
17,CC(=O)/C(=N\Nc1ccccc1)Sc1nnc(-c2ccccc2)n1-c1ccccc1,3.94
18,O=C(Oc1ccccc1C(=O)Oc1ccccc1)c1ccco1,14.2
19,CCC(=O)Nc1ccc(C(=O)NNC(=O)COc2cc(C)ccc2C)cc1,17.6
20,COC(=O)c1ccc(C2C(Oc3ccccc3)C(=O)N2CCc2ccc(F)cc2)cc1 (centres unmarked),10.7
